# Among all 310,000 compounds or so, about 2,200 (0.71%) showed an effect of 50% or more. The effect is printed as a negative number. Some of the results follow.
# Target: human ether-à-go-go-related gene (hERG) potassium channel (human, UniProt Q12809)
# Experiment: primary screen, population patch clamp on CHO cells stably expressing hERG
# human ether-à-go-go-related gene (hERG) potassium channel, sequence (Q12809 whole entry, looked up): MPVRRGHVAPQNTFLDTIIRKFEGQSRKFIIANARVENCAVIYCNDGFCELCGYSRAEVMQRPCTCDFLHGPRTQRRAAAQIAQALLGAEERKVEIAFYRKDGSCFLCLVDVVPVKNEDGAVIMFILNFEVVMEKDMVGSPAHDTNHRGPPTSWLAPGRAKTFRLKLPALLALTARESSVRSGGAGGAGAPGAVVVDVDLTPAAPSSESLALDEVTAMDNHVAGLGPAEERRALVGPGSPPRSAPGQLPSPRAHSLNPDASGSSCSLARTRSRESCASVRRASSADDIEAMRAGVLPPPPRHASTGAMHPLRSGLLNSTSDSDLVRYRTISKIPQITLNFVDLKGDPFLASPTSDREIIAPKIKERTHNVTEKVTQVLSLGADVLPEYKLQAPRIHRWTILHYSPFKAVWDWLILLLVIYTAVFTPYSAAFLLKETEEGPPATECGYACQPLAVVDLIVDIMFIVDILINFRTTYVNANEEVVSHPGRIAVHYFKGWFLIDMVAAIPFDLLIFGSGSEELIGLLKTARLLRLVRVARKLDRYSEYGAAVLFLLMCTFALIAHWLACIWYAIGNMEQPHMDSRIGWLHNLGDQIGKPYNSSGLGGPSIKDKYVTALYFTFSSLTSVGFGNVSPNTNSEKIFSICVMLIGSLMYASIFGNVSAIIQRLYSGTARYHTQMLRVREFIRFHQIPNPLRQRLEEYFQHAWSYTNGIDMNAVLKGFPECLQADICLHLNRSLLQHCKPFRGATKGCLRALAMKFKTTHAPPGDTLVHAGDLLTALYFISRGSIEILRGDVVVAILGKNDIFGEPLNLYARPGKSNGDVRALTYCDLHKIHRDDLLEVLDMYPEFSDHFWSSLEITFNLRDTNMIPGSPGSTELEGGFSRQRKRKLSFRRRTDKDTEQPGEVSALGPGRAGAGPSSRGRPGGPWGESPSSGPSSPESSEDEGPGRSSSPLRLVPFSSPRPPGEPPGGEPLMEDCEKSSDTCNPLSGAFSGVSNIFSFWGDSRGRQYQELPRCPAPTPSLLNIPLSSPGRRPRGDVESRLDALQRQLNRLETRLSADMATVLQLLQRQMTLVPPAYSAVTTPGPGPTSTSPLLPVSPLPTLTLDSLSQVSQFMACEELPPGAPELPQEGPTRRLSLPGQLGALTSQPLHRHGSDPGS
row,Structure (SMILES),"hERG current change (%, negative = inhibition) at 1uM"
1,COC(=O)CSc1nnc(CNc2ccc(F)cc2)o1,11.8%
2,CC(C)CC(=O)C1=C(O)C(=O)N(Cc2ccccc2)C1c1ccccc1 (centres unmarked),15.8%
3,Cc1ccc(/C([O-])=C(/C(=S)NCc2ccc3c(c2)OCO3)[n+]2ccc(N(C)C)cc2)c(C)c1,4.82%
4,Cc1cccc(C)c1Nc1nnc(SCc2cn3cccc(C)c3n2)s1,-1.37%
5,Cc1noc(C)c1CC(=O)NC1CC(C)(C)Cc2c1cnn2-c1ccccc1 (centres unmarked),15%
6,Br.N=C1c2ccccc2CN1NC(=O)c1ccc(Cl)cc1,9.65%
7,CC(Oc1ccc(Cl)cc1Cl)C(=O)NC1CCSC1=O (centres unmarked),-1.23%
8,COCCNC(=O)/C(C#N)=C/c1ccc(-c2ccc(S(=O)(=O)N3CCOCC3)cc2)o1,-5.96%
9,O=[N+]([O-])c1ccc(-c2nnc(-c3ccccc3)c(NCCCO)n2)cc1,-12.1%
10,Cc1ccc(Cn2cccc(-c3nc4ccccc4s3)c2=O)cc1,9.36%
11,C=CCn1c(CSCc2ccc(F)cc2)n[nH]c1=S,11%
12,CCc1noc(C)c1C(=O)NCCc1ccc(S(N)(=O)=O)cc1,14.9%
13,CCOC(=O)N1CCC(N2CCN(S(=O)(=O)CC)CC2)CC1.O=C(O)C(=O)O,6.91%
14,Cc1ccc(CN2CCN(/N=C/c3ccc(C)s3)CC2)c(C)c1,3.66%
15,CCOC(=O)c1c(C)[nH]c(C(=O)COC(=O)/C=C/c2ccc(O)c(OC)c2)c1C,7.7%
16,O=C(NCc1ccc2c(c1)OCO2)C1CC(c2ccc(Cl)c(Cl)c2)=NO1 (centres unmarked),11.2%
17,COc1ccc(-c2nc(C)ncc2-c2csc(C)n2)c(O)c1,12%
18,CC(C)Cc1nc2oc3c(Cl)ncnc3c2c2c1CCC2,-4.68%
19,COc1ccc(N2CCN(C(=O)CSc3nnc4c(C)cc5cc(C)ccc5n34)CC2)cc1,3.46%
20,O=C(Nc1ccccc1C(=O)Nc1ccccn1)c1ccc([N+](=O)[O-])cc1,-6.3%
21,CN(C)Cc1cc(C(C)(C)c2cc(CN(C)C)c(O)c(CN(C)C)c2)cc(CN(C)C)c1O,0.44%
22,CC(=O)OC1CC2(C)/C(=N\O)CCC2C2CCc3cc(O)ccc3C12.CCO (centres unmarked),0.0879%
23,CCOc1ccccc1C1C(C(N)=O)=C(C)Nc2nc(-c3cccc(C)c3)nn21 (centres unmarked),7.25%

# Reference: paper PMC4336329 (PLoS ONE, 2015)
